Experimental data taken from US9446018B2, “Pharmaceutical composition for treating or preventing angina or myocardial infarction induced by myocardial ischemia” (SINPHAR TIAN-LI PHARMACEUTICAL CO., LTD. (HANGZHOU), priority 2009, dated 2016).

Experiments:
Conditions in all cases: rat; 7 days + IP after ligation; isosorbide dinitrate 18.75 mg/Kg, STA-2 low dose 250 mg/Kg, Aspirin 8.3 mg/Kg; mean ± SEM
[1] = system: creatinine phosphokinase (CPK) in serum
[2] = system: lactate dehydrogenase (LDH) in serum
[3] = system: nitric oxide (NO) in serum

CC(=O)Oc1ccccc1C(=O)O [Aspirin]
Serum CPK concentration (unit/ml) [1]: 7.14 ± 1.00 unit/ml | Serum LDH concentration (unit/ml) [2]: 8.27 ± 1.05 unit/ml | Serum NO concentration [3]: 33.2 ± 2.90 µM
